Over roughly 33,000 sequences, “E-score (-0.5 to 0.5)” has its median near -0.012; the highest 2% begin near 0.29. Some of the results follow.
biological target: T1, Ybr033w (UniProt P38073); experiment: PBM E-score (8-mer binding enrichment) (E-score (-0.5 to 0.5)); higher = stronger / more preferred TF binding; most listed sequences are background and not binding sites; details: protein concentration: 200 nM; construct: GST-full length
T1 sequence: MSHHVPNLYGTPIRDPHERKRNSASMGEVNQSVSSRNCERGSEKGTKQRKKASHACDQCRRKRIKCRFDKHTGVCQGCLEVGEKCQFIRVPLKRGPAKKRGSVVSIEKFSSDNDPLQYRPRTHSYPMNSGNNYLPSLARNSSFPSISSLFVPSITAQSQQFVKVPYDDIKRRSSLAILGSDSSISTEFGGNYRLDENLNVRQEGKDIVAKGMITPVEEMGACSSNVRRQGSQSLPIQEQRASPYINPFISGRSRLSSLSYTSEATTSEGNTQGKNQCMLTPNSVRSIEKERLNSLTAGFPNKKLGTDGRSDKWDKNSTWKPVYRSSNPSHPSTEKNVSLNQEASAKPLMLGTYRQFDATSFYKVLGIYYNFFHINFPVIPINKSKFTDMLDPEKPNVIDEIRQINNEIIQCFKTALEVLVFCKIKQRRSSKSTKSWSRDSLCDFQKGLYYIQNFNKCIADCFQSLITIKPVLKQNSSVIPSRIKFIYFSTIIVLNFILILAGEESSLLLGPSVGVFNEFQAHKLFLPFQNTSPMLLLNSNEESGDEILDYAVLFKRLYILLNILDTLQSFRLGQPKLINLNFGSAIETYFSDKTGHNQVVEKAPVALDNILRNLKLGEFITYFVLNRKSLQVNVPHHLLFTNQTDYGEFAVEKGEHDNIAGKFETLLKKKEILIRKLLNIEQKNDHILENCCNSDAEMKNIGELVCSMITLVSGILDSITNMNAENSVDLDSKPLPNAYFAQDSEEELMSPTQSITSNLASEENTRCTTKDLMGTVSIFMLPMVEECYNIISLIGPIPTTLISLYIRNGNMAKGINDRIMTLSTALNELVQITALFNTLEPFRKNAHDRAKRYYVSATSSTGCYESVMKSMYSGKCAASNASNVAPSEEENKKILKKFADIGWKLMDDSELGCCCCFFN
Method: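 Universal 'all 10-mer' protein binding microarrays (Agilent AMADID 015681) probed with GST-tagged S. cerevisiae TFs (full-length or DBD) made by in vitro transcription/translation (PURExpress), about 100-200 nM. Bound TF was detected with fluorescent anti-GST. Each ungapped 8-mer (which stands for itself and its reverse complement) is scored by the PBM enrichment score (E-score), a modified Wilcoxon-Mann-Whitney statistic from -0.5 to +0.5, computed with the Universal PBM Analysis Suite. Scale: above 0.35 generally sequence-specific binding.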

Sequence	PBM E-score
GTGACTGA	0.0134
GTAAACGA	0.115
AAGGCGCA	-0.0162
AAAAGTAA	0.314
ACTGCCTA	-0.0707
CCACCTCG	-0.205
ACATCCAG	0.0405
AGGTGAAT	0.0888
CGATAGCC	-0.103
CCGAAAGG	-0.16
CACGACGG	-0.0326
CCTGTTCG	-0.157
AACTTCAT	0.205
GGGATTCA	-0.16
TGTATGAA	-0.124
CTCGTATA	-0.0786
GCTATCCC	-0.201
ACGCTTTG	0.0578
AGCGTAAG	-0.107
AAGCAAAT	0.0946
ATCACGAG	-0.187
AGGACCAG	-0.155
CAGCCTAG	0.0256
ATCGTTGC	-0.281
ATTGAACG	0.159

Sequence	PBM E-score
CTGGTAAA	0.00474
ACTGGCGC	-0.0583
CCCTTCTA	-0.292
CGCGGACG	-0.141
AGCCGCCT	-0.18
GGCACAGA	-0.163
ACTCTGAT	0.0103
CGCCAACG	-0.0928
ACAAGATA	0.153
AGCCCCCG	-0.467
GGACGGAA	0.0838
GGTTGCCA	-0.0111
GCAGCGAC	-0.299
CTAAGCGA	-0.179
ATGACTAC	-0.122
GCTCCTAC	-0.124
GCGCAGCA	-0.176
CCAGTAAG	-0.0776
ACGTCCCA	-0.25
AGCTAGGC	-0.194
CATGTCGC	-0.06
GGTACGGA	-0.106
AGGGTAGA	-0.177
ACTGCGAA	-0.0623
CCACTGTC	-0.2

Sequence	PBM E-score
AGTTAAAG	0.0526
GCACACTA	0.0297
TGCTAGCA	-0.0081
CGCTTCTA	0.0979
CCCGAAGG	-0.163
CCGCCTTC	-0.153
GCGTTTAA	0.117
AAGTGCGA	-0.169
CGCGCGAA	-0.068
CCAGGAAA	0.237
AGAACGCG	-0.0831
ACCATCTG	-0.122
CCTTCCTA	-0.182
ACATTCCG	-0.0433
GACGGCGA	-0.248
AACGAAGT	0.106
AAGCGAAA	0.0229
ACCGTGGC	-0.268
AATCAAAG	0.0864
ATGATGAC	0.0631
CAGGGCTA	-0.156
CTCAGCAA	0.104
AACACATG	0.0413
AATTAAAG	0.217
AGTCTATA	0.0345

Sequence	PBM E-score
GAACAACA	0.196
AGAAGACG	0.123
CGGGCAGA	-0.0691
CACTCAAA	0.0703
CTTTCTAC	0.00625
CAGTGCGG	-0.137
TCATTACA	0.258
CTAAACTC	0.0381
AGATTACT	0.202
ATTACATA	0.228
GCGGTGTA	-0.0247
AGATACCT	-0.0724
CTAGAAAG	0.0991
TGAATGAA	0.13
CGACTTTA	0.141
ATATCAGC	-0.0414
GGGCAATA	-0.0229
AACGTGTA	0.114
AAAGACGG	-0.114
ACGCACCT	-0.0108
CACCCCGC	-0.106
ATACAGCC	-0.0236
AATATGGA	0.107
ATTGAGGC	0.105
CATGGTTC	-0.0103

Sequence	PBM E-score
ATGGACCG	-0.103
CCATACCA	0.0828
CTTGTGAC	-0.0338
CAGGTTCC	-0.205
AGCTCAGA	-0.222
ACTTGGCC	-0.179
GGTCTTAC	-0.0701
AACTGGAA	0.134
CGCCTTCA	-0.188
CCGCTTGC	-0.0517
CATCAATC	0.0636
AGTGTGTG	0.0958
GAGGAACC	-0.0925
AGGTCATA	-0.0094
ACATAAAT	0.149
CAGTCGAG	-0.244
GGACTAAC	-0.0911
AACCTCCT	0.0181
GACCTGGA	-0.0751
AAAGAATG	0.284
AGCCTAAC	-0.0736
AGTGGCCC	-0.284
CAATCCGA	0.14
GCCCCACC	-0.0518
CCCCGGGA	-0.241

Sequence	PBM E-score
AGAAGATC	-0.0526
AAACCACC	-0.0782
CCTGCGGC	-0.304
ACTACCCA	0.0187
AGCAACAT	0.0238
CCGAGCTC	-0.118
CCAGTGCA	-0.108
ATAATCAC	0.212
TTACAAAA	0.268
GGCCCAGA	-0.33
AAGCCGAT	0.0459
CCGTGCTC	-0.22
CCTCGTCC	-0.169
ATATGTTC	0.261
GGTATGAC	-0.127
CCTCTGAA	-0.218
ACTTCGAC	0.0396
CGCCAAAA	0.0408
ATCCAAGA	0.175
CTCTGATC	-0.226
CATGCTGG	-0.08
ACTCCGCG	-0.177
GTGGAATA	0.262
ACGACAGA	-0.16
GACGAGCA	-0.00776

Sequence	PBM E-score
TGAGATAA	0.151
GTGGCGTA	-0.0744
TCGACCAA	-0.117
TATTCCAA	0.269
CTGTTACC	-0.0685
GCGTAGAC	-0.163
ATGTTGTG	0.206
ACCGGCGC	-0.15
ACCGCCAA	-0.0227
AGGAACTG	-0.123
CATTCTTA	0.0157
CCTTCTTA	-0.143
GGCAGCCA	-0.0547
CACAACCG	-0.0477
ATAAGATC	0.0107
CAGATCCC	-0.187
ATGTGGAC	0.0325
CTACTTGA	-0.0776
ATGGACGA	0.032
GCTCTAGA	-0.2
ACCAAAAC	0.0839
TAACACTA	0.28

Source: the supplement of paper PMC3334620
